Results reported in PMC4336329 (PLoS ONE, 2015).
Screen size: about 310,000 compounds; about 14,000 (4.5%) showed an effect of 50% or more. Effects have a minus sign here. The list shows a part of the results.

molecular target: human ether-à-go-go-related gene (hERG) potassium channel (human, UniProt Q12809); assay: primary screen, population patch clamp on CHO cells stably expressing hERG
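Also: peak tail current of the secondary pulse compared with the same well before compound.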

human ether-à-go-go-related gene (hERG) potassium channel, sequence (Q12809 whole entry, looked up): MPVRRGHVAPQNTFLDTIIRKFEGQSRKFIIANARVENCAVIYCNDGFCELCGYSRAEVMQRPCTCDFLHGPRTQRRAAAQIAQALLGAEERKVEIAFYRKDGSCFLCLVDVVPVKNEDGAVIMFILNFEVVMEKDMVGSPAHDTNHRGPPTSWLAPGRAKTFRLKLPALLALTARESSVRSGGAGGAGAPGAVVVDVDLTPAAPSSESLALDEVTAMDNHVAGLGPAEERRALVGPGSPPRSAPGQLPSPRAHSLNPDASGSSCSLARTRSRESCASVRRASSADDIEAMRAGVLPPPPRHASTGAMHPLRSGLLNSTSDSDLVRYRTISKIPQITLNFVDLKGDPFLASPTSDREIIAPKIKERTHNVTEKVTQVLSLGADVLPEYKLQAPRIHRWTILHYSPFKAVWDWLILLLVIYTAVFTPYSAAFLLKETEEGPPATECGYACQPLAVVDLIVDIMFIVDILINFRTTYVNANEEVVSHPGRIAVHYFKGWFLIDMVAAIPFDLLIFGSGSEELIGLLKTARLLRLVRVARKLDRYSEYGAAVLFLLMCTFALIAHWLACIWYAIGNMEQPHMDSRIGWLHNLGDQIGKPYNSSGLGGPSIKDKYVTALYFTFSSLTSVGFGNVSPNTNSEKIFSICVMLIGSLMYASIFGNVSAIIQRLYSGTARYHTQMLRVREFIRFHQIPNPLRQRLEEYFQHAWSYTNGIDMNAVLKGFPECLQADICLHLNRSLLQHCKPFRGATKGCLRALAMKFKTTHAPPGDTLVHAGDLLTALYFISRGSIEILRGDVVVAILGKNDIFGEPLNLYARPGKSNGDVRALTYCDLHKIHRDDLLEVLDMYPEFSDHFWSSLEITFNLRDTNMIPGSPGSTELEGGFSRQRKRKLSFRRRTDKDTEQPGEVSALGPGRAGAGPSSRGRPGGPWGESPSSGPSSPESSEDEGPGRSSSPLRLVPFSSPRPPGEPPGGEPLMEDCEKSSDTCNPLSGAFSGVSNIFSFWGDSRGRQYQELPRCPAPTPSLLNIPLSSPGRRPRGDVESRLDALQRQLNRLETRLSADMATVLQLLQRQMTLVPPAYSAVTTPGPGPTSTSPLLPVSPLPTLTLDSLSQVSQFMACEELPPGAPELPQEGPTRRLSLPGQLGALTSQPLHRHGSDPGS

Structure (SMILES)	hERG current change (%, negative = inhibition) at 10uM
CCOc1ccccc1Nc1nnc(SCC(=O)Nc2ccc3[nH]c(=O)[nH]c3c2)s1	-0.693%
CCc1cc(C=NC2CCCCC2)c(O)s1	1.75%
O=C(O)[C@@H](c1ccccc1)N1Cc2ccccc2C1=O	17.2%
COc1cc(C#Cc2c(-c3cncn3C)n(C)c3ccc(-c4cnc(OC)nc4)cc23)cc(OC)c1	13.5%
CCc1cccc(CC)c1NC(=S)N1CCn2cccc2C1c1cccnc1 (centres unmarked)	-12.8%
Clc1ccccc1-c1nnc2sc(-c3ccc(Br)o3)nn12	-9.09%
COC(=O)[C@H](Cc1c[nH]c2ccccc12)NC(=O)Nc1ccccc1OC	-0.283%
N#Cc1cc(S(=O)(=O)c2ccc(Cl)cc2)c(N)[nH]c1=O	-12.6%
O=C(Nc1ccc(S(=O)(=O)N2CCCCC2)cc1)c1ccncc1	-13.1%
COc1ccc(C)cc1NC(=O)COC(=O)c1c(C)noc1C	-7.92%
CC1CCN(C(=O)C2CCN(S(=O)(=O)c3cccs3)CC2)CC1	5.61%
CC(=O)Nc1ccc(S(=O)(=O)Nc2cc(C)c(-n3nc4ccccc4n3)cc2O)cc1	5.05%
CCC(=O)Nc1ccc(C(=O)CSc2nc3ccccc3cc2CC)cc1	-4.95%
Cc1ccc(OCC(=O)NNC(=O)C(=O)NC(C)(C)C)cc1	2.1%
Cc1[nH]n(-c2ncc(-c3ccc(Cl)cc3)s2)c(=O)c1C(c1ccc(Cl)cc1)C(C#N)C#N (centres unmarked)	5.38%
NC(=O)C1=C[C@@H](c2ccc(C(F)(F)F)cc2)C[C@@H](OCc2ccc(CO)cc2)O1	-19.1%
COc1ccc(N(C)C(=O)Cn2c(=O)oc3ccccc32)c(OC)c1	-14.7%
Cc1cc(C)cc(OCC(=O)N2N=C(c3cccnc3)CC2(O)C(F)(F)F)c1 (centres unmarked)	-15.3%
COc1ccc(OC)c(-c2nc3ccccc3nc2-c2ccccc2)c1	14.4%
O=C(CN1CCc2ccccc2C1)Nc1cccc(S(=O)(=O)N2CCCC2)c1	-10.5%
CN(C)c1ccc(C(CNC(=O)c2ccccc2)c2c[nH]c3ccccc23)cc1 (centres unmarked)	-22%
CCOC(=O)N1CCN(C(=O)CCS(=O)(=O)c2ccc3c(c2)CC(C)N3C(=O)CC)CC1 (centres unmarked)	-4.81%

Structure (SMILES)	hERG current change (%, negative = inhibition) at 10uM
CCCCN1CC(O)=C(c2nc3ccccc3s2)C1=N	0.804%
CCOCCCNC(=O)C1CCN(C(=O)Nc2ccc(Cl)cc2)CC1	-8.08%
Cc1ccc(S(=O)(=O)Oc2ccc(/C=C(/NC(=O)c3ccccc3)C(=O)O)cc2)cc1	34.7%
Cc1cccc2c(C(=O)N3CCN(c4ccccn4)CC3)cc(-c3cccc(Br)c3)nc12	10.5%
Nc1nc(NC(=O)C(Cl)(Cl)Cl)nn1-c1ccccc1	16.7%
CCOc1ccc(C(=O)Nc2ccc3c(c2)OCCO3)cc1[N+](=O)[O-]	10.3%
COc1ccc(NC(=O)c2ccc3[nH]c(=O)c(=O)[nH]c3c2)c(OC)c1	27.9%
COc1cccc(OC)c1-c1nn(-c2ncc(C(F)(F)F)cc2Cl)c(=O)o1	14.2%
CCC1=NN2C(=N)/C(=C/c3c(C)nn(-c4ccccc4)c3Cl)C(=O)N=C2S1	-43.1%
Cc1cc(C)cc(NC(=O)Nc2ccc(-n3ccc(C(F)(F)F)n3)cc2)c1	15.4%
CC(C)CCNC(=O)CN(Cc1ccco1)C(=O)c1snc(C(N)=O)c1N	-5.71%
c1ccc(-c2cnn3nnnc3n2)cc1	5.77%
Cc1cccc(N2CCN(c3ccc(N4C(=O)CCCC4=O)cc3[N+](=O)[O-])CC2C)c1 (centres unmarked)	14.9%
CCC(NC(=O)C1CCCO1)c1ccccc1 (centres unmarked)	22.8%
O=C(CSc1nncc2ccccc12)Nc1cccc(O)c1	-11.6%
Cc1cc(NC(=O)c2cccc(S(=O)(=O)N3CC(c4ccccc4)CC3=O)c2)no1 (centres unmarked)	-23%
NC(=O)C1CCCN(C(=O)c2ccc(Cl)cc2)C1 (centres unmarked)	6.59%
Cc1noc2c1C(c1ccc(N(C)C)cc1)C1=C(CC(C)(C)CC1=O)N2 (centres unmarked)	-4.91%
O=C(CCCOc1ccccc1)NN1C(=O)NC2(CCCCC2)C1=O	32.7%
Cc1ccsc1C(=O)N/N=C/c1ccc2c(c1)OCO2	8.07%
CC(=O)Nc1cccc(NC(=O)c2csc(C)c2)c1	4.56%
COc1cc2c(cc1OC)CN(CC(=O)Nc1ccc(F)cc1F)CC2	-10.3%
